Measurements: PMC6919601, “Identification of Plasmodium dipeptidyl aminopeptidase allosteric inhibitors by high throughput screening” (PLoS ONE, 2019)
The campaign covered roughly 110,000 compounds. About 230 (0.21%) showed an effect of 50% or more. Some of the results follow.

Target: DPAP1 (Plasmodium falciparum, UniProt Q8IIJ9)
Assay: primary screen, percent inhibition; read by cleavage of a fluorogenic dipeptide substrate; higher = more effect of the substance
Design: species or system P. falciparum D10 trophozoite lysates; single well
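Further: 30 min substrate incubation versus DMSO and 10 µM JCP410 controls.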

Chain of DPAP1 (Q8IIJ9 whole entry, looked up): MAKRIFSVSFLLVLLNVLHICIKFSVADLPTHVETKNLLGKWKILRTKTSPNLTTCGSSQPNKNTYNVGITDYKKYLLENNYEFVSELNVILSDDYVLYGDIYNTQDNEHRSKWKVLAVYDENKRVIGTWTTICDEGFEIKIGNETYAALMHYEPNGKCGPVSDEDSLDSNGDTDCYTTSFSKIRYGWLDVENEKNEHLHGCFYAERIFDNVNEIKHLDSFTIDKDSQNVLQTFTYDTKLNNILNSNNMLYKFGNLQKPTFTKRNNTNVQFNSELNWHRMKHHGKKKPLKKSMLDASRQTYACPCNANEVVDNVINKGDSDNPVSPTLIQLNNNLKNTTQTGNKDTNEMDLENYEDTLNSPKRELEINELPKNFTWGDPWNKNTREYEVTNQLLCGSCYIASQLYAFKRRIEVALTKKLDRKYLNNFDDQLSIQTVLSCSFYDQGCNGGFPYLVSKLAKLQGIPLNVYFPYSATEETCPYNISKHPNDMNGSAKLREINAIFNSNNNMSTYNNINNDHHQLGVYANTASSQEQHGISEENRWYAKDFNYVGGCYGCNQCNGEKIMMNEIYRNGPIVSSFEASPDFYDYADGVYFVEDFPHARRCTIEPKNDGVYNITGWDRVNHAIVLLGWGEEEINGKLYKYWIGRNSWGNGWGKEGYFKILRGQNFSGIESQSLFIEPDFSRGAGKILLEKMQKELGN

| SMILES | % Inhibition @ 10 uM [%] |
| --- | --- |
| C=CCc1cc(/C=C2/SC(=O)N(C(C)C)C2=O)cc(OC)c1O | 1.86 |
| CC(=O)c1c(C)nn2c3ccccc3n(C)c12 | -5.21 |
| O=C(NC1(C(F)(F)F)NC(=O)N(c2ccc(OC(F)(F)F)cc2)C1=O)c1ccncc1 (stereo not drawn) | -3.72 |
| CCC1CCCCN1C(=O)C1CCN(C(=O)c2c(C)nn(-c3ccccc3)c2-n2cccc2)CC1 (stereo not drawn) | -7.1 |
| Cc1cccc(C(=O)NCCN2CCCC2)c1 | -0.519 |
| CC1=C(C(=O)Nc2ccc(Cl)cn2)C2(CCCCCC2)OC1=O | -0.285 |
| CC(C)N(CC(O)COc1cccc2ccccc12)C(=O)c1cccc2ccccc12 (stereo not drawn) | 1.8 |
| CN1CCC(N2CCCCCCC2)CC1 | -7.93 |
| CCCc1nnc(NC(=O)C(CC)Sc2nnc3c(n2)[nH]c2ccccc23)s1 (stereo not drawn) | -5.51 |
| CC(=O)NS(=O)(=O)c1ccc(NC(=O)c2cccc(Cl)c2)cc1 | -2.29 |
| COC(=O)C1=CN(C23CC4CC(CC(C4)C2)C3)C=C(C(=O)OC)C1c1ccc(Cl)s1 | 0.147 |
| COc1cc(C2=NOC(C(=O)N3CCOCC3)C2)cc(OC)c1OC (stereo not drawn) | -0.431 |
| CCCNC(=O)C1=C(C)C(=O)OC12CCN(C(C)=O)CC2 | 1.08 |
| COc1ccc(OC)c(NC(=O)CCc2ccccc2)c1 | 5.42 |
| CC1CCCCN1CCNc1ncnc2onc(-c3ccc(Cl)cc3)c12 (stereo not drawn) | -3.95 |
| N#C/C(=C\Nc1cc(Cl)ccc1O)C(=O)NC(=O)Cc1ccccc1 | -2.87 |
| Cc1sc2c(c1C)CSC(C(=O)NCc1ccc3c(c1)OCO3)=C2 | 11.9 |
| O=C(Nc1ccc(C(F)(F)F)cc1)C1CCN(S(=O)(=O)c2cc(Cl)ccc2Cl)CC1 | -9.08 |
| COc1cc(C2=NOC(C(=O)NCc3cccnc3)C2)cc(OC)c1OC (stereo not drawn) | -0.431 |
| Cc1cc(C)nc(NS(=O)(=O)c2ccc(NC(=O)Cc3ccccc3)cc2)n1 | 11.4 |
| COc1ccc(-c2cs/c(=N\c3ccc(OC(F)F)cc3)n2CCO)cc1 | 0.993 |
| CC1=CC2=NC(=O)/C(=C/c3ccc(OCc4cc(=O)n5nc(C)sc5n4)cc3)C(=N)N2O1 | -9.6 |
| CCOC(=O)N1CCC2(CC1)C(C#N)=C(N)Oc1[nH]nc(C)c12 | 9.39 |
| COC(=O)c1nc2n(n1)C(c1cc(OC)ccc1OC)/C(=C(\O)OC1CCCCC1)C(C)=N2 (stereo not drawn) | 2.17 |
| Cc1nc2c(C(=O)N(C)Cc3ccco3)cnn2c(O)c1Cc1ccccc1F | 1.62 |

| SMILES | % Inhibition @ 10 uM [%] |
| --- | --- |
| C=CCSc1ncc(Cl)c(C(=O)Nc2nc3ccc(OC)cc3s2)n1 | -0.946 |
| Nc1c(C(=O)Nc2cc(F)ccc2F)sc2nc(-c3cccs3)ccc12 | -1.02 |
| CCCCCC(=O)Nc1ccc(CN2CCOCC2)cc1 | 0.851 |
| CC(=O)c1c(N)nc(C)nc1-c1ccccc1 | -14.6 |
| O=C1S/C(=C/c2cccnc2)C(=O)N1Cc1c(F)cccc1Cl | -6.44 |
| COc1cc(C)ccc1OCCSc1nc(-c2ccc(C)cc2)nc2cc(=O)[nH]n12 | -5.33 |
| O=C1C(=O)N(C2CCCCC2)C(=O)N1C1CCCCC1 | 2.38 |
| O=C(O)c1c2c(nc3ccc(Br)cc13)CCCC2 | 5.01 |
| Cc1oc2ncn3c(C)nnc3c2c1C(=O)NC1CC1 | 1.08 |
| CNC(=O)CCCc1nnc2n(C)c(=O)c3sccc3n12 | -1.35 |
| O=C(NCCC1=CCCCC1)C1CCN(S(=O)(=O)N2CCOCC2)CC1 | 0.387 |
| Cc1ccccc1Cc1c(C)nc2c(C(=O)N3CCN(c4ccccn4)CC3)cnn2c1C | 1.16 |
| O=C(CN(c1ccc(F)cc1)S(=O)(=O)c1ccccc1)NC1CCCC1 | -9.66 |
| O=c1c(CN2CCC(O)CC2)coc2ccc(Cl)cc12 | -2.95 |
| COc1cc(/C=C2\SC(Nc3ccc(F)cc3)=NC2=O)ccc1O | 0.59 |
| COc1ccc(OC)c(S(=O)(=O)N2CCCC2C(=O)NC23CC4CC(CC(C4)C2)C3)c1 (stereo not drawn) | 10.4 |
| CCc1ccc(-n2nc(C)c3c(C)cc(=O)n(CC(=O)NC(C)C)c32)cc1 | 5.62 |
| CCCN1C(=O)CN(C2CCCCC2)C(=O)C1c1ccc(OC(C)C)c(OC)c1 (stereo not drawn) | 4.47 |
| CC1(C)CC2(CCO1)OC(=O)CC2C(=O)NCc1ccccc1 (stereo not drawn) | -5.15 |
| C=CCn1c(S)nnc1-c1ccco1 | 2.7 |
| CCC(C)N(C(=O)c1cc(Cl)ccc1OC)C(C)CC (stereo not drawn) | -3.24 |
| CN(C)CCN(Cc1ccccc1)Cc1ccc(Cl)c(Cl)c1 | -5.2 |
| Clc1cccc(OCCN2CCN(c3ccccc3)CC2)c1 | -1.89 |
| CN1CCN(Cc2nc3c(c(=O)n(C)c(=O)n3C)n2CCCc2ccccc2)CC1 | -5.1 |
| C=CCn1c(SCC(=O)Nc2cccc(C(C)=O)c2)nc2sc3c(c2c1=O)CCC3 | -4.61 |

| SMILES | % Inhibition @ 10 uM [%] |
| --- | --- |
| OC(CN1CCCC1)Cn1c2ccccc2c2ccccc21 (stereo not drawn) | -6.06 |
| COc1cccc2c1cc1c(=O)n(CC(=O)NCCc3ccc(S(N)(=O)=O)cc3)nc(C)n12 | -3.47 |
| Cc1nn(C(=O)CCC(=O)NCc2cccnc2)c2ccccc12 | 2.07 |
| O=C(NC(Cc1ccccc1)C(=O)N1CCC2(CC1)OCCO2)C1CCCCC1 (stereo not drawn) | -4.06 |
| Cc1ccc2c(c1)C(=O)OC(C(=O)Nc1nccs1)C2 (stereo not drawn) | 1.91 |
| Cc1ccc(-c2c(N3CCC(C)CC3)c(=O)c2=O)cc1C | 21.6 |
| Oc1ccc(-c2ccccc2)cc1 | 10.4 |
| CCOc1ccc(Cc2c(C)nc(N)nc2O)cc1 | 0.0265 |
| CCOC(=O)C1=C(C)N=c2s/c(=C/c3ccc(Br)s3)c(=O)n2C1c1cccs1 (stereo not drawn) | 0.685 |
| Cc1oc(C)c2c(=O)cc(-c3ccc4c(c3)OCO4)cc(OC(=O)c3cccs3)c12 | -4.75 |
| CC(C)Oc1ccc(C(=O)Nc2nc3ccccc3s2)cc1 | 0.145 |
| N#CC1=C(N)OC2=C(C(=O)CC(c3ccccc3)C2)C1c1cccc2ccccc12 (stereo not drawn) | 7.65 |
| Cc1nc2nc(-c3ccccc3)nn2c(O)c1Cc1ccccc1 | -2.4 |
| O=C(Nc1cccc(Br)c1)C1CCN(S(=O)(=O)c2cc(Cl)ccc2Cl)CC1 | -3.05 |
| Fc1ccccc1N1CCN(Cc2cccc(Cl)c2)CC1 | 1.55 |
| Cc1cc(C)n2nc(NC(=O)CCc3ccccc3)nc2n1 | 0.401 |
| CC(C)(C)c1oc(C(=O)O)cc1CN1CCCC1 | -3.65 |
| CCc1nnc(SCC(=O)N(CC)Cc2ccccc2)c2cc3sc(C)cc3n12 | -10.2 |
| Cc1cc(-c2nc3ccccc3[nH]2)c2ccccc2n1 | 4.7 |
| Cc1ccc(CS(=O)Cc2ccc(C(=O)NCC(C)c3ccccc3)o2)cc1 (stereo not drawn) | -5.37 |
| CCCCNS(=O)(=O)c1ccc(C)c([N+](=O)[O-])c1 | 0.962 |
| Cc1c(-c2nsc(NC(=O)c3ccccc3)n2)nnn1-c1ccccc1F | -5.47 |
| CCOc1ccc(Cc2[nH]nc3c2C(=O)CCC3)cc1OCC | -4.49 |
| COc1ccc(S(=O)(=O)N2CN3CCN(C3)C2)cc1 | -3.14 |
| Cc1ccc(C2=NN(CCC(=O)NC(C)c3ccccc3)C(=O)CC2)cc1 (stereo not drawn) | -1.79 |

| SMILES | % Inhibition @ 10 uM [%] |
| --- | --- |
| CCn1cc2c(n1)-c1c(oc(C(=O)NCc3cc(Br)ccc3OC)c1C)CC2 | 4.33 |
| CCc1ccc(/C=N\n2cnnc2)cc1 | 6.23 |
| Cc1cc(SCC(C)C)n2ncnc2n1 | -0.446 |
| CC1(C)CC(=O)C2=C(C1)N(CC1CCCO1)C(=O)C2(NC(=O)c1cccs1)C(F)(F)F (stereo not drawn) | -1.28 |
| O=[N+]([O-])c1ccc(N2CCN(Cc3ccc(C(F)(F)F)cc3)CC2)cc1 | -0.294 |
| Cc1ccc(NC(=O)C(C)Oc2ccccc2F)c(C)c1 (stereo not drawn) | 0.291 |
| CCc1ccc(-n2nc(C)c3c(C)cc(=O)n(CC(=O)N(CC)CC)c32)cc1 | 4.32 |
| O=C(NCCN1CCN(Cc2ccccc2)CC1)c1cc2c(s1)-c1ccccc1OC2 | -4.85 |
| Cc1ccc(-c2ccccc2)n1-c1ccc(O)c(C(=O)O)c1 | 0.408 |
| O=C(c1ccccc1Cl)N1N=C(c2ccccc2)CC1c1ccco1 (stereo not drawn) | -9.82 |
| COc1cccc(Oc2c(C)oc3cc(O)ccc3c2=O)c1 | -2.91 |
| CN(C)CCCSC(c1ccccc1)c1ccccc1 | -4.48 |
| CC(C)C(=O)N1c2ccccc2N=C2CC(C)(C)CC(O)=C2C1c1ccc(N(C)C)cc1 (stereo not drawn) | -3.44 |
| O=C1C2C3C=CC(CO)(O3)C2C(=O)N1c1ccc(Cl)c(Cl)c1 (stereo not drawn) | -4.72 |
| CCOC(=O)N1CCC(NC(=O)C2CCCN(c3nn4c(=O)cc(C)nc4s3)C2)CC1 (stereo not drawn) | -0.281 |
| CCc1ccc(NC(=O)C(C)Oc2cccc(C)c2)cc1 (stereo not drawn) | -1.24 |
| CN1CCC2(CC1)N=C(c1ccccc1)C(c1ccccc1)=N2 | -3.75 |
| COc1ccccc1C1=NC(C(F)(F)F)(C(F)(F)F)N=C(N2CCOCC2)O1 | 3.36 |
| O=C(O)Cn1cc(C(=O)C2CCCCC2)c2ccccc21 | -3.13 |
| Cc1sc(NC(=O)COc2ccc(Cl)cc2)c(C(N)=O)c1C | 2.13 |
| CC(C)(C)NC(=O)Cn1ncc2c3ccccc3n(Cc3ccccc3)c2c1=O | -1.58 |
| COc1cccc(C2C3=C(O)CC(c4cccs4)CC3=NC(C)=C2C(=O)OCC(C)C)c1 (stereo not drawn) | 3.87 |
| Cc1nc2c(c(C)c1CCC(=O)NCCc1ccc(Cl)cc1)c(=O)n(C)c(=O)n2C | 3.75 |
| Clc1ccc2[nH]c(N3CCCCC3)nc2c1 | 0.345 |
